This is an account of results in ChEMBL document CHEMBL1201862, “PubChem BioAssay data set” (2004).

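Each compound was tested at five concentrations against cells in 96-well plates for 48 hours. GI50 = concentration required for 50% inhibition of growth.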 Activity calls are given as the source filed them. Rule as the data show it: active = GI50 up to about 1.1 µM and inactive = higher.

This experiment concerns NCI-H322M. In words: NCI-60 cell line screen, 48 h.
As to `OC1(c2ccc(-c3ccccc3)cc2)c2ccccc2C2=NCCN21` (stereo unspecified), the GI50 was inactive: 67.9 µM. As for `O=c1oc2ccccc2cc1-c1cn2ccccc2n1`, the GI50 was inactive: 8.85 µM. Then `O=C(O)CSc1nnc2c3ccccc3c3ccccc3c2n1`, with inactive: 54.6 µM; and `Cc1c(CNc2ccc(C(=O)NC(CCCNC(=O)c3ccccc3C(=O)O)C(=O)O)cc2)cnc2nc(N)nc(N)c12` (stereo unspecified), with active: 0.00156 µM.

Turning to `COc1ccc(C(=O)/C=C2\C(=O)Nc3ccc(Br)cc32)cc1`, the GI50 is inactive: 17.7 µM.

On to `Cc1nn(-c2ccccc2)c2c1CC(=O)Nc1ccccc1-2`, for which the GI50 is inactive: 2.24 µM. As to `O=C1c2ccccc2-c2cccc3ccc(Cc4ccccc4)c1c23`, the GI50 was inactive: > 100 µM.

On to `CC(=O)OC(C#N)CC(C)(C)/[N+]([O-])=[N+](\[O-])C(C)(C)CC(C#N)OC(C)=O` (stereo unspecified), for which the GI50 was inactive: 26.1 µM. `CN1C/C(=C\c2ccccc2[N+](=O)[O-])C(=O)/C(=C/c2ccccc2[N+](=O)[O-])C1`: the GI50 is inactive: 2.96 µM. Then `O=C1CCC23CC(C=CC=C12)n1c(=O)n(-c2ccccc2)c(=O)n13` (stereo unspecified), with inactive: > 100 µM; and `Cc1ccccc1N1C(=O)/C(=C/c2ccc(N(CCC#N)CCC#N)cc2)N=C1c1cc([N+](=O)[O-])ccc1Cl`, with inactive: 2.7 µM; and `NNC(=O)/C(NC(=O)c1ccccc1)=C(\N)c1cccc([N+](=O)[O-])c1`, with inactive: > 100 µM. As for `CCCCCCCCCCCCCCCCCC(=O)Nc1ccn(C2CCC(COP(=O)(O)O)O2)c(=O)n1` (stereo unspecified), the GI50 was inactive: > 100 µM.

`CC1=C(C(=O)OC(C)C)C(c2cccc([N+](=O)[O-])c2)C(C(=O)OC(CO[N+](=O)[O-])CO[N+](=O)[O-])=C(C)N1` (stereo unspecified): the GI50 was inactive: 25.2 µM.

`Cn1c(=O)c2nc(NCCO)cnc2n(C)c1=O`: the GI50 was inactive: > 100 µM.

On to `Cc1cccc(C(C)(C)C)c1NC(=O)CC1C(=O)Nc2ccccc2S1(=O)=O` (stereo unspecified), for which the GI50 was inactive: 11.5 µM. `Cc1nccc2c1cnc1ccnn12`: the GI50 is inactive: > 100 µM. With `O=C(O)C(SC1=NC(=O)C2(NN1)c1ccccc1-c1ccccc12)SC1=NC(=O)C2(NN1)c1ccccc1-c1ccccc12`, the GI50 is inactive: > 10 µM. Take `Cc1nc2ccccc2c(=O)n1/N=C(\N=N\c1cc(Cl)ccc1Cl)c1cccc(-c2ccco2)c1`: the GI50 was inactive: > 100 µM. For the molecule `O=C(/C=C/c1ccc(O)c(O)c1)NC(CO)C(=O)O` (stereo unspecified), the GI50 is inactive: > 100 µM.

Regarding `CCCCCCNC(=O)c1cc(NCc2cc(OC)ccc2OC)ccc1O`, the GI50 is inactive: 35.1 µM. In the case of `CCC(=O)O[C@H]1CC[C@H]2[C@@H]3CCC4=C/C(=N/NC(=O)c5cccc6c(=O)c7ccccc7[nH]c56)CC[C@]4(C)[C@H]3CC[C@]12C`, the GI50 is inactive: > 25 µM. For `COc1cc(/C=C2/SC(c3ccccc3)N(c3cccc([N+](=O)[O-])c3)C2=O)cc(OC)c1OC` (stereo unspecified), the GI50 was inactive: > 100 µM. Take `C=CC(OC(C)=O)c1ccc(OC(=O)C(C)C)c(OC)c1` (stereo unspecified): the GI50 was inactive: 5.27 µM.

As to `O=S(=O)(N/N=C/c1ccc(Cl)c(Cl)c1)c1ccccc1`, the GI50 was inactive: 39.3 µM.

As to `COc1ccccc1Nc1nc(N)nc(N)c1N`, the GI50 is inactive: > 100 µM. With `CC1(C)OC(CCC#N)CN1C(=O)OCc1ccccc1` (stereo unspecified), the GI50 was inactive: > 100 µM. As for `CN1CN(C2OC(CO)C(O)C2O)c2nc(N)[nH]c(=O)c21` (stereo unspecified), the figure is inactive: > 100 µM; as for `NC(=O)C(=CNC(=S)Nc1ccccc1)C(N)=O`, inactive: > 100 µM; as for `COc1cc2ccc1OCc1cccc(n1)COc1ccc(cc1OC)/C=N\c1ccc(cc1)-c1ccc(cc1)/N=C\2`, inactive: > 100 µM. Take `Cc1ccc2c(c1C)C(=O)/C(=C/c1cccc(C)c1C(=O)O)C2`: the GI50 was inactive: > 100 µM. As to `Oc1nc(CC(O)c2ccc(Cl)c(Cl)c2)cc(-c2ccccc2)n1` (stereo unspecified), the GI50 is inactive: 72.6 µM.

In the case of `CCOC(=O)C(=C=Cc1cccs1)C(=O)c1ccccc1`, the GI50 was inactive: 16.9 µM.

For the molecule `O=S(=O)(c1cc(Cl)ccc1Cl)N1CCN(c2ccc(Cl)c(Cl)c2)CC1`, the GI50 was inactive: 37.4 µM. In the case of `O=C(C(Cl)Cl)N(O)c1ccccc1OCc1ccccc1`, the GI50 was inactive: 34.7 µM. For `OCC1OC(N2CCN(C3OC(CO)C(O)C(O)C3O)CC2)C(O)C(O)C1O` (stereo unspecified), the GI50 was inactive: > 100 µM. As for `CC(C)(C)c1cc(C2COC(=O)COCC(=O)OCCOCCOCCO2)cc(C(C)(C)C)c1O` (stereo unspecified), the figure is inactive: 39 µM; as for `O=C(Nc1cc(Cl)ccc1Cl)C(=O)C(c1cnc2ccccc2n1)[N+](=O)[O-]` (stereo unspecified), inactive: > 100 µM; as for `Cc1ccc(S(=O)(=O)NC(=O)C2=C3SCCN3C(=O)N(S(=O)(=O)c3ccc(C)cc3)C2c2ccccc2)cc1` (stereo unspecified), inactive: 67 µM. As for `O=C(c1ccccc1)c1ccc2cccc(O)c2n1`, the figure is inactive: > 100 µM.

Take `OCCN(CCO)c1cccc(N(CCO)CCO)c1`: the GI50 was inactive: > 100 µM. Consider `COc1ccc2c(c1)/c(=C/C#N)c1c3ccccc3[n+](C)n21`, for which the GI50 was inactive: 8.77 µM. For the molecule `CCOC(=O)/C(=C\c1ccc(N(CCC#N)CCC#N)cc1)NC(=O)c1cc([N+](=O)[O-])ccc1Cl`, the GI50 is inactive: > 100 µM.

`O=C(NCc1cccs1)OC1CC2CCC1C2` (stereo unspecified): the GI50 is inactive: > 100 µM. For the molecule `O=C(CC(=O)CC(O)(C(F)(F)F)C(F)(F)F)CC(O)(C(F)(F)F)C(F)(F)F`, the GI50 was inactive: > 10 µM. Turning to `COC(=O)C1=C(CCCCO[Si](C)(C)C(C)(C)C)NC(=O)N2[C@H](CCOCc3ccccc3)CC[C@@H]12`, the GI50 is inactive: > 100 µM. As for `O=C(CN1CCCC1)Nc1ccc2c(c1)C1Oc3ccccc3CC1CO2` (stereo unspecified), the GI50 was inactive: 56.8 µM.

In the case of `CCOC(=O)c1cc(-c2ccc(Cl)cc2)c([N+](=O)[O-])n1C`, the GI50 is inactive: > 10 µM. In the case of `COc1cc2oc3ccccc3c(=O)c2cc1CSc1ccccc1N`, the GI50 is inactive: 30.9 µM. Consider `CN(C)CCNC(=O)c1cccc2c(NCCN(C)C)c3ccccc3nc12`, for which the GI50 was inactive: 2.36 µM. As for `COc1c(Cl)ccc(Cl)c1-c1nnc(-c2c(Cl)c(Cl)c(Cl)c(Cl)c2-c2nc3cc(C(=O)c4ccccc4)ccc3[nH]2)o1`, the GI50 was inactive: 80.2 µM.

As for `C=C1C(=O)OC2/C=C(\C)C3OC3/C=C(/C(=O)OC)C(O)C(OC(=O)C3(C)OC3C)C12` (stereo unspecified), the GI50 was inactive: 11.1 µM. `O=C1OC(=O)C23CSCC12C1C=CC3O1` (stereo unspecified): the GI50 was inactive: > 100 µM. For the molecule `NC1c2c(Cl)sc(Cl)c2C(=O)C1O` (stereo unspecified), the GI50 is inactive: 69.3 µM. `COc1ccc(OC)c2sc(N3C(=O)/C(=C/c4ccc(Cl)cc4)N=C3c3ccccc3)nc12`: the GI50 was inactive: > 100 µM. For the molecule `CCOC1(OCC)N=C(N)C2(C#N)C3(C(=O)N(C(C)C)N=C3C)C12C#N` (stereo unspecified), the GI50 is inactive: > 100 µM. For `CN1C(=O)CNS1(=O)=O`, the GI50 is inactive: > 100 µM. `COc1c2c3c4c(c(OC)c(=O)c5c(O)cc(OC)c(c6c(OC)cc(O)c(c1=O)c63)c54)C(C(C)O)C2C(C)O` (stereo unspecified): the GI50 was inactive: 1.96 µM. With `COC(=O)c1cc2c3c(c(C(C)=O)c(OC)c2[nH]1)NCC3`, the GI50 is inactive: > 50 µM. In the case of `CCCCCCCCCCCCCCCCc1c(O)nc(NN)nc1C(=O)OC`, the GI50 was inactive: > 50 µM. Then `CCN(CC)CCCn1c(=O)c2cccnc2n2c3c(=O)n(C)c(=O)n(C)c3nc12`, with inactive: > 100 µM; and `CN(C)N1C(=O)SCC(c2ccccc2)(c2ccccc2)C1=O`, with inactive: > 100 µM. Take `COC(=O)C(CNC(=O)/C=C/c1ccc(OC)c(OC)c1)NC(=O)/C=C/c1ccc(OC)c(OC)c1` (stereo unspecified): the GI50 is inactive: > 100 µM.

As to `NC(=O)c1nnc2c(F)cccc2c1N`, the GI50 was inactive: > 100 µM. For `c1ccc2c3c([nH]c2c1)C1C2CCCCN2C(c2ccncc2)N1CC3` (stereo unspecified), the GI50 was inactive: 85.7 µM. In the case of `CC(=O)O[C@H]1CC[C@@]2(C)C(=CC[C@H]3[C@@H]4C[C@H](N5CCOCC5)[C@H](OC(C)=O)[C@@]4(C)CC[C@@H]32)C1`, the GI50 is inactive: > 100 µM. Then `COc1cc(OC(=O)c2c(O)cc(O)c(O)c2C)cc(C)c1C(=O)Oc1cc(C)c(C(=O)O)c(O)c1`, with inactive: > 100 µM; and `O=S(=O)(O)C(CO)c1ccccc1.O=S(=O)(O)Cc1ccccc1` (stereo unspecified), with inactive: > 100 µM. Consider `Cc1cc(=O)oc2cc(OC(=O)Nc3ccc(Cl)c(Cl)c3)ccc12`, for which the GI50 was inactive: 35.3 µM.

Turning to `CN(CCCNC(=O)c1c2ccc3ccccc3c2nn1C)CCCNC(=O)c1c2ccc3ccccc3c2nn1C`, the GI50 was inactive: 12.2 µM. Regarding `CN(C)CCNC(=O)c1cccc2c(NCC(=O)O)c3ccccc3nc12`, the GI50 is inactive: 15.8 µM. Then `CCCCn1c(CSc2ccc(Cl)cc2)c(C(=O)OCC)c2cc(OC)c(Br)cc21`, with inactive: > 100 µM.

For the molecule `COc1cc(C(c2cc(OC)c(OC)c(OC)c2)N2C(=O)CCC2C(=O)O)cc(OC)c1OC` (stereo unspecified), the GI50 is inactive: > 100 µM.

As for `CC[C@@]1(N(C)C)C(=O)OCc2c1cc1n(c2=O)Cc2cc3ccccc3nc2-1`, the GI50 is inactive: 46.8 µM. In the case of `C[C@H]1CCC2C(OC(=O)[C@@H]2CN(C)C)[C@]2(C)C(=O)C=CC12O` (stereo partly specified), the GI50 is inactive: 17.2 µM. Consider `Oc1ccc(-c2nc3cc(C(F)(F)F)ccc3n2CC2CCCN3CCCCC23)cc1` (stereo unspecified), for which the GI50 is inactive: 13.6 µM.

As to `O=[N+]([O-])C1C2C=CC(C2)[C@H]1c1ccc(Cl)cc1Cl` (stereo partly specified), the GI50 was inactive: > 100 µM.

On to `Nc1ncnc2c(C3OC(CO)C(O)C3O)n[nH]c12` (stereo unspecified), for which the GI50 was active: 0.061 µM. Consider `C[C@H](OC(=O)/C=C/c1ccc(O)c(O)c1)[C@H](C)OC(=O)/C=C/c1ccc(O)c(O)c1`, for which the GI50 is inactive: 13.7 µM.

On to `CSCCCNC(=O)c1csc(-c2csc(CCNC(=O)CNC(=O)CNC(=O)OC(C)(C)C)n2)n1`, for which the GI50 is inactive: > 100 µM. As for `COc1ccc2c(c1)CN1CCc3c(cc(OC)c(OC)c3OC)C1C2` (stereo unspecified), the GI50 is inactive: > 100 µM.
